“And” between values parts separate entries of the source, which are not always exact repeats. Equal values may be shown once. Out of some 310,000 compounds screened, about 11,000 (3.5%) were called active. Inconclusive results, whose numbers are uncertain, are shown with a selection of clear calls. The call rests on the fitted dose curve; in most records, active means well fitted inhibition curve with a large enough effect; inconclusive means small, poorly fitted or top-dose-only effect, or effect the other way; inactive means flat fitted curve, though single readings scatter. No potency is given beside an inconclusive call; the fits are too rough.
Test: VP16 counterscreen qHTS for inhibitors of ROR gamma transcriptional activity;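 further: Gal4-VP16 expression switched on by copper sulfate through the metallothionein promoter; nearly all actives have a fitted effect of over 50% in size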
Settings: Drosophila S2 Gal4-VP16 UAS-luciferase, luminescence, 20 h; activity, negative = inhibition: at 53.6 µM (top of the series)
On the % scale 0 is the no-effect control and ±100 the full control effect; potency means the concentration at half of the fitted maximal effect; tags describe the fitted curve by direction and shape.

Compound	Potency	activity, negative = inhibition
Cc1cccc(C)c1NC(=O)COC(=O)c1ccc2[nH]c3c(c2c1)CCCC3	inconclusive [inhibitor, single point]	
C/C(=C(/CCO)SSC[C@@H]1CCCO1)N(C=O)Cc1cnc(C)nc1N	inactive	
Cc1ccc(OCC(=O)NNc2c3ccccc3nc3ccccc23)cc1	active: 12.6 µM	
CCOC(=O)/C=C/C(=O)Nc1nccs1	inconclusive [inhibitor, single point]	
N#Cc1ccccc1NC(=O)CC1c2ccccc2Oc2ccccc21	inconclusive [inhibitor, single point]	
O=C(Nc1ccccc1)NN(C(=O)CCl)c1ccccc1	inconclusive [inhibitor, single point]	
COc1ccc(C(CNC(=O)COc2cc(C)c(Cl)c(C)c2)N2CCCCC2)cc1 (configuration not stated)	inconclusive [inhibitor, single point]	
COc1ccc2nc(N/C(N)=N/C(=S)Nc3ccccc3)nc(C)c2c1	active: 4.47 µM	
COc1cccc(Oc2ccc3nnc(C(F)(F)F)n3n2)c1	inactive	
Cc1ccsc1C(=O)N/N=C/c1ccc2c(c1)OCO2	inconclusive [inhibitor, single point]	
CC(C)C(C(=O)NC1=NCCS1)c1ccc(Cl)cc1 (configuration not stated)	inconclusive [inhibitor, single point]	
COC(=O)/C(=N\Nc1ccccc1)Sc1nnc(-c2ccc(OC)cc2)n1C	inconclusive [inhibitor, single point]	
COC(=O)C1=C(C)N(C)C(=S)NC1c1ccc(Cl)cc1 (configuration not stated)	active: 11.2 µM	
Oc1cccc(Nc2nc(O)c(/C=C3\C=Nc4ccccc43)s2)c1	inconclusive [inhibitor, partial curve]	
Nc1c(C(=O)N/N=C/c2ccc(OCc3ccccc3)cc2)cnn1-c1ccccc1	inconclusive [inhibitor, partial curve, poor fit]	
N#CCCc1cccc(CCC#N)c1	inactive	
Cc1[nH]n(C(N)=S)c(=O)c1N=Nc1ccc2ccccc2c1	active: 3.98 µM	
O=[N+]([O-])c1ccccc1N/N=C\c1ccccc1Cl	inactive	
COc1ccc(C(=O)c2ccsc2N)cc1	inconclusive [activator, full curve, poor fit]	
O=C(CC1SC(=NCCc2ccccc2)N(/N=C/c2cccs2)C1=O)Nc1ccc(Cl)cc1 (configuration not stated)	active: 0.794 µM	
COc1cccc(-c2cn(-c3cccc(C(F)(F)F)c3)c(=S)[nH]2)c1	inconclusive [inhibitor, partial curve]	
Cc1cc(Nc2ncc(Cl)cc2Cl)n(-c2ccccc2)n1	inconclusive [inhibitor, full curve, poor fit]	
CC(C)N1C(=O)CCN(C=O)c2ccccc21	inactive	
Cc1ccc(OCc2nnc(N)s2)cc1C	inactive	

Compound	Potency	activity, negative = inhibition
COc1ccc(C)cc1N=Nc1ccc(O)c2ncccc12	active: 0.631 µM	
NC(=O)c1nsc(C(=O)N(CC(=O)NCc2ccco2)c2ccccc2F)c1N	inconclusive [inhibitor, single point]	
Cc1ccc(S(=O)(=O)N(CC(=O)N2CCC(C)CC2)c2ccccc2)cc1	inconclusive [inhibitor, single point]	
Cc1[nH]n(-c2cccc(Cl)c2)c(=O)c1/C=N/n1c(C)nc2ccccc2c1=O	inconclusive [inhibitor, single point]	
CCn1c(O)c(/C=C2\C=Nc3ccccc32)sc1=O	inconclusive [inhibitor, partial curve]	
Cc1ccc(/C=C/C(=O)N2CCc3ccccc32)o1	inconclusive [inhibitor, single point]	
CCOC(=O)c1sc(NC(=O)Nc2cccc(Cl)c2)cc1C	inconclusive [inhibitor, single point]	
O=c1cc(-c2ccccc2Cl)oc2c(NS(=O)(=O)c3ccccc3OC(F)(F)F)ccc(O)c12	inconclusive [inhibitor, single point]	
COc1cccc(C=Nc2cccnc2)c1O	inactive	
CCOC(=O)C1(Cc2ccc(Cl)cc2)CCN(C(=O)CCc2ccncc2)CC1	inconclusive [inhibitor, single point]	
COc1ccc(-c2cc([C@H]3[C@H]4C=CC[C@@H](C)[C@@H]4C(=O)N3Cc3ccccc3)ccc2F)cc1OC	inconclusive [activator, single point]	
O=C(O)CC(Cc1ccc(Cl)cc1)C(=O)Nc1cc(Cl)ccc1Cl (configuration not stated)	inactive	
CC(C)(C)c1ccc(-n2ncc3c2CCCC3NC(=O)CCN2CCCO2)cc1 (configuration not stated)	inconclusive [inhibitor, single point]	
O=C(N/N=C/c1cccc([N+](=O)[O-])c1O)C(O)(c1ccccc1)c1ccccc1	active: 1.26 µM	
COc1ccccc1NC(=S)NC(=O)CCc1ccccc1	active: 10 µM	
N#C/C(=C\c1ccccc1)C(=O)N(c1ccccn1)C1CCCCC1	inconclusive [inhibitor, single point]	
O=Nc1ccc(O)c2ncccc12	active: 11.2 µM and active: 5.62 µM	
COc1ccc([C@]23Cc4cc(OC)c(OC)cc4C(O2)c2c(cc(C)oc2=O)O3)cc1		inactive: -0.336% [at 10 µM]
Nc1c2c(nc3ccc(Br)cc13)N(c1ccccc1)CC2	inactive	
Cc1ccc2c(Cl)cc(Cl)c(OCC(=O)Nc3cc(S(=O)(=O)N(C)C)ccc3C)c2n1	inconclusive [inhibitor, single point]	
Cc1ccc(-c2nn(-c3ccccc3)cc2/C=N/NC(=O)c2ccc3c(c2)OCO3)cc1	inactive	
Cc1c(CN(C)C(=O)/C=C/c2ccc([N+](=O)[O-])cc2)cnn1C	inactive	
N#C/C(=C/c1cccc(O)c1)C(=O)NCc1ccc(Cl)cc1	inconclusive [inhibitor, single point]	

Source: PubChem BioAssay AID2546 (National Center for Advancing Translational Sciences (NCATS), 2010)
